The results in this text go back to patent publication US20250163048A1 (Tango Therapeutics, Inc., priority 2022, published 2025).

Read-outs that look alike come from different tables or passages of the source.

The test system of assay [1] is MTAP-deleted cell line. The assay is described as follows: viability assay for the MTAP-deleted cell line. It is filed as cell-based. As to conditions: Homo sapiens, HAP1, viability assay.
In assay [2] the test system is HAP1 MTAP-intact cell line. The assay is described as follows: SDMA in-cell western assay, HAP1 MTAP-intact. As to conditions: Homo sapiens.
The subject of assay [3] is HAP1 MTAP-deleted cell line. The assay is described as follows: SDMA in-cell western assay, HAP1 MTAP-deleted. As to conditions: for IC50 / IC90: Homo sapiens; for IC50: HAP1, read-out: Hap1 MTAP deleted IC50, SDMA in-cell western, HAP1 MTAP-deleted cell line; for IC90: HAP1, read-out: Hap1 MTAP deleted IC90, SDMA in-cell western, HAP1 MTAP-deleted cell line; for Hap1 MTAP intact/deleted ratio: IC50 ratio between HAP1 MTAP-intact and HAP1 MTAP-deleted cell line, SDMA in-cell western.

Setting [4] is: HAP1, read-out: Hap1 MTAP intact IC50.
The mark [5] stands for this setting: HAP1, read-out: Hap1 MTAP intact IC50, SDMA in-cell western, HAP1 MTAP-intact cell line.

As to `C[C@H]1CC[C@H](c2ccccc2)N(C(=O)C(=O)Nc2cnc(N)c3cn[nH]c23)C1` [Compound 126, N-(4-amino-1H-pyrazolo[4,3-c]pyridin-7-yl)-2-oxo-2-[(2R,5S)-5-methyl-2-phenyl-1-piperidyl]acetamide], the IC50 (usually the concentration that gives 50% inhibition) in assay [1] is less than 100 nM; in assay [2] (setting [4]) it was 5 to 50 nM.
Regarding `C[C@H]1CC[C@H](c2ccc3sc(C4(C)CCN(C)CC4)nc3c2)N(C(=O)C(=O)Nc2cncc3cn[nH]c23)C1` [Compound 132, 2-((2R,5S)-2-(2-(1,4-dimethylpiperidin-4-yl)benzo[d]thiazol-5-yl)-5-methylpiperidin-1-yl)-2-oxo-N-(1H-pyrazolo[4,3-c]pyridin-7-yl)acetamide], the IC50 in assay [2] (setting [4]) lay within 5 to 50 nM.
For `C[C@H]1CC[C@H](c2ccc3sc(C45CCN(CC4)C5)nc3c2)N(C(=O)C(=O)Nc2cncc3cn[nH]c23)C1` [Compound 57, 2-((2R,5S)-2-(2-(1-azabicyclo[2.2.1]heptan-4-yl)benzo[d]thiazol-5-yl)-5-methylpiperidin-1-yl)-2-oxo-N-(1H-pyrazolo[4,3-c]pyridin-7-yl)acetamide], in assay [3], the concentration for half-maximal inhibition (IC50) is less than 5 nM, the IC90 (commonly the point of the concentration-response curve where the effect stands at 90%) was less than 75 nM and the “Hap1 MTAP intact/deleted ratio” value is “C (“C” indicates an IC50 ratio of less than 15 fold)”. Moreover, the IC50 in assay [1] was less than 100 nM. The IC50 in assay [2] (setting [5]) lay within 5 to 50 nM.
As to `C[C@H]1CC[C@H](c2ccc(N3CCN(C)CC3)cc2)N(C(=O)C(=O)Nc2cnc(N)c3cn[nH]c23)C1` [Compound 120, N-(4-amino-1H-pyrazolo[4,3-c]pyridin-7-yl)-2-((2R,5S)-5-methyl-2-(4-(4-methylpiperazin-1-yl)phenyl)piperidin-1-yl)-2-oxoacetamide], the figures for the IC50 in assay [3] and in assay [2] (setting [5]) were 5 to 50 nM and greater than 50 nM, respectively. Further, the “Hap1 MTAP intact/deleted ratio” value in assay [3] is listed as “B (“B” indicates an IC50 ratio greater than or equal to 15 fold but lower than 30 fold)”.
Take `C[C@H]1CC[C@H](c2ccc3sc([C@@H]4CCCN(C)C4)nc3c2)N(C(=O)C(=O)Nc2cncc3c(N)nccc23)C1` (relative stereo) [Compound 8, N-(8-amino-2,7-naphthyridin-4-yl)-2-oxo-2-[(2R,5S)-5-methyl-2-[2-[rel-(3R)-1-methyl-3-piperidyl]-1,3-benzothiazol-5-yl]-1-piperidyl]acetamide]: in assay [3], the IC50 was less than 5 nM, the IC90 was less than 75 nM and the “Hap1 MTAP intact/deleted ratio” value is on record as “A (“A” indicates an IC50 ratio greater than or equal to 30 fold)”. Besides, the IC50 in assay [1] was less than 100 nM. For the same compound, the IC50 in assay [2] (setting [5]) was greater than 50 nM.
